According to patent US20230145766A1:

Assays:
[1] = target: T1, IL-2Rβ receptor with an avi tag and an His6 tag at the C-terminus (human) (UniProt P14784); test: BLI (ForteBio); biotinylated receptor on SA sensor, 100 nM IL-2-Fc in solution, 1:1 model
T1 sequence: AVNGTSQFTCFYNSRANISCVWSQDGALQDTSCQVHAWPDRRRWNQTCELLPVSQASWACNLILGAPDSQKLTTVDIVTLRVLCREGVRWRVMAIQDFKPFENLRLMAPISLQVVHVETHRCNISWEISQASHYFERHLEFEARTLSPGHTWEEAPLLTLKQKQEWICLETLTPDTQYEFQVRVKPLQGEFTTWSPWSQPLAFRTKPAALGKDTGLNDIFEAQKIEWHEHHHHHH

[2] = target: T1, IL-2Rβ receptor with an avi tag and an His6 tag at the C-terminus (human); test: BLI (ForteBio); biotinylated receptor on SA sensor, 100 nM IL-2 mutant molecule in solution, 1:1 model

Kd [1]: 0.041 µM | Kd [2]: 0.0245 µM
Substance: Y045 (IL-2^WT-2*(G4S)-FcLALA) (no sequence given) (Fc fusion; biotin on the avi tag (enzymatic labelling with BirA); other documents disagree on this pair)
